According to article PMC12040169 (PLOS Biology, 2025):
The other results are listed elsewhere or left out.

These compounds were tested on T1, C. trachomatis L2/434/Bu expressing GFP (CTL2-GFP). Conditions: total inclusion area; 28.5 h, 10 µM; inhibitor.
T1 construct: L2/434/Bu GFP intracellular growth in HeLa cells
Parameters: species or system HeLa; C. trachomatis total inclusion area by high-content imaging, normalised to DMSO
In short: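 After bulk GFP and resorufin fluorescence reads, cells were fixed, stained with Hoechst and imaged by high-content microscopy. Inclusion area and number (GFP) stood in for chlamydial growth, nuclei count (Hoechst) for host cell viability. MICs were derived as for the bulk readout.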

Row | SMILES | % of control remaining
1 | Cc1ccc(N2C(=O)c3ccccc3C2=O)cc1 [CBK113243] | 87.2065
2 | Cc1cccc(N2CCN(C(=O)C3CCN(Cc4cccc(OCc5ccccc5)c4)CC3)CC2)c1C [CBK264328G] | 65.8861
3 | Cc1ccccc1C1(O)CCN(CC(O)c2ccc(F)cc2)CC1 (stereo not shown) [CBK282471] | 127.948
4 | Cc1ccc(C)c(C(=O)C2=C(O)C(=O)N(CCN(C)C)C2c2cccc(Cl)c2)c1 (stereo not shown) [CBK265495] | 113.91
5 | CSCCN1CCC2(CC1)CN(CC(N)=O)c1ccccc12 [CBK126801] | 78.4414
6 | O=C(O)CN1C(=O)C(=O)/C(=C(O)\C=C\c2ccccc2)C1c1ccccc1 (stereo not shown) [CBK286551] | 80.4234
7 | Cn1c2ccccc2c2nnc(SCCc3ccccc3)nc21 [CBK267986] | 83.4872
8 | O=C(Cn1cnnn1)N1CCc2ccccc21 [CBK200367] | 103.068
9 | O=C(Nc1cccnc1)c1cc(S(=O)(=O)N2CCOCC2)ccc1Br [CBK270101] | 89.2984
10 | O=C(CCn1c(=O)oc2cc(Cl)ccc21)NCc1ccco1 [CBK269857] | 55.5936
11 | COc1ccc(OC)c(-n2c(SCC(=O)N3CCC(C(=O)O)CC3)nc3ccccc3c2=O)c1 [CBK296981] | 100.195
12 | COC(=O)c1cc(NC(=O)NCCC2=CCCCC2)cc(C(=O)OC)c1 [CBK044120] | 55.7287
13 | O=C(c1ccc(N2CCCC2)cc1)N1CCc2sccc2C1c1ccco1 (stereo not shown) [CBK285707] | 89.0314
14 | COCCNc1cc(-c2ccncc2)ncn1 [CBK037729] | 97.5618
15 | Cc1ccccc1OCc1nn2c(COc3ccccc3)nnc2s1 [CBK267230] | 71.7008
16 | CC(=O)NCCSc1nc2ccccc2nc1C(F)(F)F [CBK105303] | 107.877
17 | Cc1c(CN2CCC(CO)C2)cnn1Cc1ccccc1 (stereo not shown) [CBK282113] | 84.8487
18 | CC(Oc1ccc(C(C)(C)C)cc1)C(=O)Nc1nnc[nH]1 (stereo not shown) [CBK267431] | 106.585
19 | Cc1cccc(-c2ccc3c(c2)C(=O)N2CC[C@H](NC(=O)c4cnccn4)[C@H]2C(=O)N3)c1C [CBK289348] | 97.5191
20 | COc1ccc2ncc(C(=O)O)c(Nc3ccccc3C)c2c1 [CBK269522C] | 101.883
21 | O=C(Nc1cccnc1)N1CCCC(CO)C1 (stereo not shown) [CBK156068] | 84.6598

Row | SMILES | % of control remaining
22 | N#Cc1c(NC(=O)CN2CCCCC2)sc2c1CCCC2 [CBK261619] | 105.724
23 | FC(F)Oc1ccc(NC(=S)NCCN2CCOCC2)cc1 [CBK028000] | 77.9882
24 | CN(C)S(=O)(=O)c1ccc(C(=O)Nc2ccccc2O)cc1 [CBK267809] | 105.655
25 | O=C1CCCCCC1C(Nc1ccc2ccccc2c1)c1cccnc1 (stereo not shown) [CBK293919] | 86.0239
26 | CCn1cc(CN2CCOC(c3cccc(-c4ccc(OC)cc4)n3)C2)c(C)n1 (stereo not shown) [CBK286250] | 113.818
27 | COc1cccc(CNc2ccc(N3CCOCC3)cc2)c1OCc1ccccc1F [CBK074406] | 44.0052
28 | CCCC(=O)c1ccc(S(=O)(=O)N2CCCN(Cc3c(C)[nH]c(C(=O)OCC)c3C)CC2)cc1 [CBK062947] | 87.9917
29 | CN(C(=O)c1ccc2c(c1)NC(=O)CS2)c1ccccc1 [CBK296612] | 87.9012
30 | CCOc1ccc(CN(C)CC(=O)Nc2cc(C)no2)cc1 [CBK305605] | 20.5513
31 | CC(C)(C)OC(=O)NC1CCC(NCc2ccncc2)CC1 (stereo not shown) [CBK056688] | 82.0274
32 | Cc1ncc(-c2ccc3ccccc3c2)s1 [CBK019439B] | 108.499
33 | COc1cc(C(=O)N2CCC3(CC2)CC(=O)c2ccc(C)cc2O3)cc(-c2ccc(OC)c(OC)c2)c1 [CBK168282] | 121.832
34 | COc1ccccc1C(=O)Nc1ccccc1N1CCN(C)CC1 [CBK267938] | 94.2554
35 | CCNc1n[nH]c(N)c1-c1nc(-c2ccc(OC)cc2)no1 [CBK288557] | 94.3577
36 | COc1cc(S(=O)(=O)NCCCn2ccnc2)ccc1Cl [CBK269186] | 95.3192
37 | O=C(NC1(C#Cc2cnc3ccccc3c2)CCCCC1)C1CCCO1 (stereo not shown) [CBK283085] | 93.1033
38 | O=S(=O)(NCCN1CCCC1)c1cccc2nsnc12 [CBK261132] | 98.5012
39 | Cc1c(CCC(=O)N2CCCC(C(=O)O)C2)c(=O)oc2c(C)c(O)ccc12 (stereo not shown) [CBK286764] | 92.1105
40 | CC1=NN(c2ccc([N+](=O)[O-])cc2)C(=O)/C1=C/NCCN1CCN(C(=O)c2ccc(F)cc2)CC1 [CBK262920] | 73.1541
41 | O=C(Nc1ccc(S(=O)(=O)Nc2nccs2)cc1)c1cc(-c2cccnc2)nc2ccc(Cl)cc12 [CBK267721] | 89.8133
42 | S=c1[nH]nc(Nc2ccccc2)n1-c1ccccc1 [CBK026332] | 116.818

Row | SMILES | % of control remaining
43 | NCCCNCCOc1ccc(Cl)c(Cl)c1 [CBK268631C] | 62.3109
44 | Cc1onc(-c2ccccc2)c1CNC(=O)c1cccnc1 [CBK144100] | 84.7555
45 | Fc1cccc2sc(Nc3nc(-c4ccccn4)cs3)nc12 [CBK287479] | 62.947
46 | CCOC(=O)c1cccnc1-c1ccc(OC)c(OC)c1 [CBK149240] | 92.0264
47 | CCN(CC)S(=O)(=O)c1ccc(Cl)c(C(=O)Oc2cccc3cccnc23)c1 [CBK263205] | 104.577
48 | N#Cc1c(NC(=O)C(=O)NCc2cccnc2)sc2c1CCCC2 [CBK269485] | 125.099
49 | CN1CCC[C@H]1C(=O)Nc1nc2c(s1)C(=O)CC(C)(C)C2 [CBK144101] | 75.9661
50 | CC(CN1CCCCC1)OC(=O)COc1ccc(F)cc1 (stereo not shown) [CBK058066C] | 110.771
51 | CCOc1ccc(-c2cncc(NC3CCC(O)CC3)n2)cc1 (stereo not shown) [CBK065877] | 76.2308
52 | COc1ccc(-c2ccccc2CC2(C(=O)NCc3cccs3)CCOCC2)cc1 [CBK286429] | 112.732
53 | Nc1cccc(-c2nc(-c3cncnc3)cnc2N)c1 [CBK063907] | 103.165
54 | O=C(O)C1CCCN(C(=O)NCc2ccc3c(c2)OCO3)C1 (stereo not shown) [CBK161346] | 75.4897
55 | CCCC(=O)N1CCn2c(nnc2-c2cncc(Br)c2)C1 [CBK304761] | 90.0716
56 | COc1cc2[nH]c(=S)n3nc(-c4ccncc4)nc3c2cc1OC [CBK288559] | 98.2775
57 | Cc1ccc(-c2nnc(C3CCCN(C(=O)C4CC4)C3)o2)s1 (stereo not shown) [CBK285516] | 113.405
58 | O=[N+]([O-])c1ccc(Oc2cccc3cccnc23)c(C(F)(F)F)c1 [CBK002739] | 90.8179
59 | O=C(NC1CCCC1)c1ccc(-c2cnc3[nH]c(=O)n(CCCN4CCOCC4)c3n2)cc1 [CBK064829] | 80.9837
60 | Cn1nccc1C(=O)NC(Cc1cccs1)c1nccs1 (stereo not shown) [CBK285055] | 97.5124
61 | O=C1c2ccccc2CN1c1cccc2ccccc12 [CBK113190] | 94.0112
62 | CCN1CC2(CCN(Cc3cccc(-c4ccccn4)c3)CC2)CC1=O [CBK307399] | 52.9917
63 | CN(C)c1cccc(-c2cncc(NCCCN3CCOCC3)n2)c1 [CBK065635] | 127.305

Row | SMILES | % of control remaining
64 | CN(C)C(=O)c1cccc(NC(=O)C2CCCCC2)c1 [CBK304515] | 45.6537
65 | Cc1nccn1CC1(O)CCN(C(=O)C2(c3ccccc3)CC2)CC1 [CBK284659] | 85.2744
66 | O=C(O)c1ccccc1C1Nc2ccccc2S(=O)(=O)N1Cc1ccccc1 (stereo not shown) [CBK286587] | 77.7192
67 | COc1cccc(CN2CCCN(c3nccc(OCC4COc5ccccc5O4)n3)CC2)c1OC (stereo not shown) [CBK115476T] | 95.3443
68 | OC(CNc1nccnc1-c1ccco1)COc1ccccc1 (stereo not shown) [CBK036862] | 128.421
69 | O=C(Nc1ccccc1C(=O)O)c1ccc(S(=O)(=O)N2CCCCC2)cc1 [CBK265174] | 78.5348
70 | CCc1ccc2c(c1)C(CCNC(=O)c1sccc1C)C(=O)N2 (stereo not shown) [CBK306459] | 94.8011
71 | Cc1ccc(=O)n(CC(=O)N2CCC[C@@H]3NC(=O)c4ccccc4OCCCCC[C@@H]32)n1 [CBK292100] | 100.844
72 | Cn1cccc1C(=O)N[C@H]1CCN2C(=O)N(c3cccc(F)c3)C(=O)[C@@H]2C1 [CBK289549] | 101.847
73 | CN(C)C(CNc1nccnc1-c1ccc(CO)cc1)c1cccnc1 (stereo not shown) [CBK038038] | 114.891
74 | CCOCCCNc1c2c(c(C#N)c3nc4ccccc4n13)CCC2 [CBK263151] | 106.616
75 | O=C(c1cscn1)N1CCN(c2ncccn2)CC1 [CBK144506] | 105.063
76 | COC(=O)c1c(C)oc(C)c1S(=O)(=O)Nc1ccc(C(C)C)cc1 [CBK057115] | 94.4073
77 | CCOC(=O)c1c(-c2cccs2)csc1NC(=O)CN1CCCCCC1 [CBK265294G] | 93.6853
78 | CCCn1ncc(C(=O)N2CCC(Oc3ccccc3F)CC2)c1C [CBK282169] | 96.6972
79 | COc1ccc(CC(=O)N(C)Cc2nnc3ccccn23)cc1 [CBK304935] | 51.229
80 | CN1CCN(Cc2ccc(-c3ccc(C(N)=O)cc3)nc2)CC1 [CBK306750] | 71.6318
81 | CCOC(=O)N1CCC(NC(=O)N2CCC(C(=O)O)CC2)CC1 [CBK156080] | 75.6865
82 | Cc1ccc(Cl)c(OC(C)C(=O)N2CCOC(CC(=O)O)C2)c1 (stereo not shown) [CBK304769] | 76.15
